# Data reported in PubChem BioAssay AID1948 (National Center for Advancing Translational Sciences (NCATS), 2009).
# Out of some 110,000 compounds screened, about 20 (0.02%) were called active. Inconclusive means that the source gave no clear call. Such entries were picked first, then a sample of the others. Calls follow the shape of the dose curve; as a rule, active = well fitted activation curve with a large enough effect; inconclusive = small, poorly fitted or top-dose-only effect; inactive = no such curve, though single readings can be large or run the other way. No potency is given beside an inconclusive call; the fits are too rough.
# Assay: qHTS Assay for Compounds that Induce Erasure of Genomic Imprints;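 as to activity change, positive = activation: 0% = negative control wells on the plate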
# Conditions: mouse ES Peg3-LacZ reporter, beta-gal luminescence, 40 h; activity change, positive = activation: at 10.9 µM (top of the series) unless noted
# Method in brief: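 Each well holds 300 Peg3LacZ-Neo (maternal) female ES cells incubated 40 h at 37C, 5% CO2. LacZ is measured by BetaGlo luminescence, with AC50 and maximum efficacy derived from dose-response curves.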
# Potency is read from the fitted curve at half-maximal effect; tags tell the direction and shape of the fitted curve.
Structure (SMILES),Potency,"activity change, positive = activation"
O=C(NCc1ccccn1)c1ccc2ccccc2n1,"inconclusive [activator, single point]",–
Cc1nn(CCC(=O)NC(C)C)c(=O)c2nn(-c3ccccc3)c(C)c12,–,inconclusive: 43% [activator]
Cc1c(C(=O)Nc2ccc(Br)cc2F)oc2ccc(S(=O)(=O)N3CCC4(CC3)OCCO4)cc12,–,inconclusive: 52.8% [activator]
CCc1nnc(NC(=O)c2ccc(S(=O)(=O)NC3CCCCC3)cc2)s1,"inconclusive [activator, full curve, poor fit]",–
COCCNC(=O)c1ccc2nc(CCc3ccccc3)oc2c1,–,inconclusive: 53% [activator]
CC(C)OCCCNC(=O)c1ccc(Cn2c(=O)c3cccn3c3cccnc32)cc1,–,inconclusive: 41.7% [activator]
CCOc1cc(C2c3c(oc4ccccc4c3=O)C(=O)N2Cc2ccc(OC)cc2)ccc1O (configuration not stated),–,inconclusive: 30.2% [activator]
Cc1cccc(C2=N[C@@H](CC(C)C)CO2)c1,inactive,–
CCCC(=O)N1CCc2cc(OC)c(OC)cc2C1COc1ccc(C(=O)OC)cc1 (configuration not stated),inactive,–
CCOc1ccc(CCNc2nc3c(-c4ccc(C)cc4)nnn3c3ccccc23)cc1OCC,–,inconclusive: 62.7% [activator]
COc1ccc(-c2nc3ccccc3n2Cc2ccc(Cl)cc2)cc1,–,inconclusive: 30.1% [activator]
OCC(O)C(O)C(O)C(O)C(O)CO (configuration not stated),"inconclusive [activator, single point]",–
COCCn1c(=O)c(CCc2ccccc2)nc2cnc(N3CCOCC3)nc21,active: 3.98 µM,–
COC(=O)CCCCCN1C(=O)NC(CC2CC2)C(C(=O)OCc2ccccc2)=C1C (configuration not stated),inactive,–
N#Cc1cccc(-c2cncnc2NCc2cccs2)c1,"inconclusive [activator, full curve]",–
Nc1nncn1C(=O)CCCN1C(=O)c2ccccc2C1=O,"inconclusive [activator, single point]",–
O=C(CSc1nc2c([nH]c3ccccc32)c(=O)n1-c1ccccc1)N1CCCC1,–,inconclusive: 145% [activator]
Cc1cccc(-c2noc(-c3ccc(NCC4CCCO4)c([N+](=O)[O-])c3)n2)c1 (configuration not stated),inactive,–
Cc1cccc(NCc2nnc3n2CCCCC3)c1C,–,inconclusive: 47.8% [activator]
COc1ccc(NC(=O)c2c(N)c(C(=O)c3ccc(C)cc3)n3ccccc23)cc1OC,–,inconclusive: 37.6% [activator]
COCCn1c(=O)c(-c2cc(F)cc(F)c2)nc2cnc(N(C)C)nc21,"inconclusive [activator, single point]",–
O=C(Nc1ccc(N2CCC(N3CCCCC3)CC2)c(C(=O)O)c1)c1ccccc1,–,inconclusive: 41.1% [activator]
COc1ccc(OC(=O)c2ccncc2)cc1,"inconclusive [activator, single point]",–
O=C(NCCC1=CCCCC1)c1ccc2c(c1)N(Cc1ccc(F)cc1)C(=O)c1ccccc1S2(=O)=O,–,inconclusive: 48.5% [activator]

Structure (SMILES),Potency,"activity change, positive = activation"
c1ccc2sc(SCSc3nc4ccccc4s3)nc2c1,"inconclusive [activator, single point]",–
CCc1ccc(N2C(=O)CC(c3cc(OC)ccc3OC)C3=C2COC3=O)cc1 (configuration not stated),inactive,–
CCC(=O)c1cc2c(C)cc(=O)oc2c(C)c1O,"inconclusive [activator, single point]",–
CCC(=O)Nc1nc(OC)cc(OC)n1,"inconclusive [activator, single point]",–
COc1ccc(CNc2ccnc(-c3ccc4c(c3)OCO4)n2)c(OC)c1,"inconclusive [activator, single point]",–
Cc1ccc(-c2n[nH]c(=O)c3ccccc23)cc1N,inactive,–
CCn1nc(C)c(CCN(C)C(=O)Nc2cc(C)cc(C)c2)c1C,inactive,–
O=C1CC(/C=C/c2ccco2)=Nc2ccccc2N1,inactive,–
COc1ccc(Oc2ncc3nc(-c4cn(C)c5ccccc45)c(=O)n(C4CC4)c3n2)cc1,"inconclusive [activator, partial curve]",–
Cc1ccc(OCC(=O)Nc2cccc(C(=O)OCc3cc(=O)n4nc(C)sc4n3)c2)cc1,–,inconclusive: 40.4% [activator]
O=C(CC1N=C2c3ccccc3N=C(SCc3cccc(F)c3)N2C1=O)NCc1ccc2c(c1)OCO2 (configuration not stated),–,inconclusive: 55.2% [activator]
COc1ccc(-c2nnc(SCC(=O)N3CCCc4ccccc43)o2)cc1OC,"inconclusive [activator, single point]",–
COc1ccc(N(CC(=O)N2CCc3ccccc32)S(=O)(=O)c2c(C)n[nH]c2C)cc1,"inconclusive [activator, partial curve]",–
CCc1cccc(C)c1NC(=O)Cn1ccn(Cc2ccc(Cl)cc2)c(=O)c1=O,inactive,–
Cn1cc(C(=O)NCCN2CCN(c3cccc(Cl)c3)CC2)c2c3ccccc3n(C)c2c1=O,"inconclusive [activator, single point]",–
Cc1nc2cnc(N(C)C)nc2n(CCc2ccccc2)c1=O,inactive,–
CC12CN3CC(C)(CN(C1)C3c1ccccc1Cl)C2O (configuration not stated),"inconclusive [activator, single point]",–
COC(=O)c1cccc(NC(=O)c2nsc3ccccc23)c1,inactive,–
COc1ccc(-c2coc3c(OC)c(OC)cc(O)c3c2=O)cc1,inactive,–
CC(=O)c1cccc(NC(=O)C2CCN(S(=O)(=O)c3c(C)n[nH]c3C)CC2)c1,"inconclusive [activator, single point]",–
O=C1CN2C(=Nc3ccc(Cl)cc3C2c2ccccc2)CN1 (configuration not stated),"inconclusive [activator, single point]",–
O=C(O)C1CSC(c2ccccc2)N1C(=O)c1ccco1 (configuration not stated),"inconclusive [activator, single point]",–
Cc1cc(=O)n(Cc2cccc(F)c2)c2c1c(C)nn2-c1cccc(F)c1,–,inconclusive: 46.9% [activator]
